Three molecules from PMC3632089 can be followed below.

Protein sequences, listed by entry. Tags and fused reporters are not part of them. Lines headed by an entry give the natural chain unless they say otherwise; changes in a name come on top. Chains listed by the source or under a name are the forms on record and can include a tag or linker. Residues count along the entry.
UniProt Q9H4A3: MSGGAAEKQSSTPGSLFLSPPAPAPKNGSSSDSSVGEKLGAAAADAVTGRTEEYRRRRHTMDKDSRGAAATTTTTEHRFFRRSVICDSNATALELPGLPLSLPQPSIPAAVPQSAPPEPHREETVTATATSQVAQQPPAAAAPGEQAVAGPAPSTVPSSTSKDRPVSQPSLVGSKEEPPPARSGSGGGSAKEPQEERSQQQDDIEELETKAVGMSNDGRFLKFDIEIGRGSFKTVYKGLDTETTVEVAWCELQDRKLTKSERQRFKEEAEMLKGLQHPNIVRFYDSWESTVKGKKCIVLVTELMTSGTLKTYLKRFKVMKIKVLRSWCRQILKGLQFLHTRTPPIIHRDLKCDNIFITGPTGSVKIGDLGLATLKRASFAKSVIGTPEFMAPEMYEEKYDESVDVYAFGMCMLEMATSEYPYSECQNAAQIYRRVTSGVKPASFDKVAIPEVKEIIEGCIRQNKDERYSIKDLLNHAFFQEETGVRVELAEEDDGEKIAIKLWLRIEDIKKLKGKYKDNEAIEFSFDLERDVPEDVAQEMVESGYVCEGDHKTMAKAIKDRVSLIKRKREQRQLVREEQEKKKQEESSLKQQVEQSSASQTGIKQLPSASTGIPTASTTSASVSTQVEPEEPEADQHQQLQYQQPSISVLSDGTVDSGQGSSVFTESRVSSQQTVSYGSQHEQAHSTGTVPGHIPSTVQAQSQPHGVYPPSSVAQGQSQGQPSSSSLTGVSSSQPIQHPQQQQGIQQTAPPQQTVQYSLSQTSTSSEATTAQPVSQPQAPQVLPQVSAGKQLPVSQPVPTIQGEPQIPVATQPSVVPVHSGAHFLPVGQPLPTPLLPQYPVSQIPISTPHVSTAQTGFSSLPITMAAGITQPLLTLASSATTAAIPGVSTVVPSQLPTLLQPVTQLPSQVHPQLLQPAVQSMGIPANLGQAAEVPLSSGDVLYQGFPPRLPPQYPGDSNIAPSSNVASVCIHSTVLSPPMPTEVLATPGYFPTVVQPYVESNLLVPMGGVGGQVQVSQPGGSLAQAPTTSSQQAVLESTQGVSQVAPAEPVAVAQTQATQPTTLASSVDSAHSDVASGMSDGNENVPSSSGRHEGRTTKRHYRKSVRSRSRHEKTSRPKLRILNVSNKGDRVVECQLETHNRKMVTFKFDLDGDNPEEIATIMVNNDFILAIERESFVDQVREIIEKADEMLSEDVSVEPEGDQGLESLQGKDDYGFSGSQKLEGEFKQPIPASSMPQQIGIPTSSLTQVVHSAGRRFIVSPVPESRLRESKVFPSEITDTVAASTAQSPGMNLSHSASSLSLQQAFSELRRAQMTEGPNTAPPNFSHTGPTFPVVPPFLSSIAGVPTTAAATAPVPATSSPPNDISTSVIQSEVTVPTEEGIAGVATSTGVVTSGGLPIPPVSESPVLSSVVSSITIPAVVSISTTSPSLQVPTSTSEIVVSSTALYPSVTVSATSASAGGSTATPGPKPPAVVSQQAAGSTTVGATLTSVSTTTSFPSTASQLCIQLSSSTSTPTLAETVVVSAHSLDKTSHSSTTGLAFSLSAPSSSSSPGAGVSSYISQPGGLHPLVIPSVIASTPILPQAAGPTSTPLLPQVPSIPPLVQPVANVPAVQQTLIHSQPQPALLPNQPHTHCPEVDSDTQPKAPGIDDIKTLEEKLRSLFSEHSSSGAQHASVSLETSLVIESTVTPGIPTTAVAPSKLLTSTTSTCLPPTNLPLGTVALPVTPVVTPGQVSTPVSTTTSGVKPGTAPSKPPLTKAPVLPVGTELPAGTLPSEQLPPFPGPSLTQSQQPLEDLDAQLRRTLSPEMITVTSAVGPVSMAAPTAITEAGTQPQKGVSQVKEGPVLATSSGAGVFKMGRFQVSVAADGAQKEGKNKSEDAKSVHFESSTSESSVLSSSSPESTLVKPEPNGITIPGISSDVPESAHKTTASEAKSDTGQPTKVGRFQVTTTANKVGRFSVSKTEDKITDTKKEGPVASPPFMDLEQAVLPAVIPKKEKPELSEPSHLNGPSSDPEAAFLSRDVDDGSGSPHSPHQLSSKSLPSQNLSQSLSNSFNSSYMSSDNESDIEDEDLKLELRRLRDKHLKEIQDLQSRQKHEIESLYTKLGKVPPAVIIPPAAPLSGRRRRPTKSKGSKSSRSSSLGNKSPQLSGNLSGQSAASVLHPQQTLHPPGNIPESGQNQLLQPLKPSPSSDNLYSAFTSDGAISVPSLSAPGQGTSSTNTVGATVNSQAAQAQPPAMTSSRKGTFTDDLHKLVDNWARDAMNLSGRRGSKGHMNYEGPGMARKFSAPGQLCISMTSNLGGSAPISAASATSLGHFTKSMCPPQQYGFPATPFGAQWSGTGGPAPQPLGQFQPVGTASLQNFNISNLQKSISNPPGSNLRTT
GST-tagged WNK1[479–667] fragment: residues 479-667 of Q9H4A3
GST-tagged WNK1[479–667] D635A (Q9H4A3, form named): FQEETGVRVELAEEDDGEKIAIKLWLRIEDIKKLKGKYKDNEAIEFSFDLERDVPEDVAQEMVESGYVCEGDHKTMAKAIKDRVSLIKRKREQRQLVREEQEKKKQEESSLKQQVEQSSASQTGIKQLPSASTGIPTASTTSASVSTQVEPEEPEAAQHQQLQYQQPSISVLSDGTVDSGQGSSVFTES
GST-tagged WNK1[479–667] Q636E (Q9H4A3, form named): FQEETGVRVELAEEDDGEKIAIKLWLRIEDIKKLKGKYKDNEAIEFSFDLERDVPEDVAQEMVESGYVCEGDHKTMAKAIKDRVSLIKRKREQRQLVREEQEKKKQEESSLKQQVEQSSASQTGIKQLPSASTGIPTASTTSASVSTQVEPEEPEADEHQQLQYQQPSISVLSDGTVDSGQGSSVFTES
GST-tagged WNK1[479–667] E633K (Q9H4A3, form named): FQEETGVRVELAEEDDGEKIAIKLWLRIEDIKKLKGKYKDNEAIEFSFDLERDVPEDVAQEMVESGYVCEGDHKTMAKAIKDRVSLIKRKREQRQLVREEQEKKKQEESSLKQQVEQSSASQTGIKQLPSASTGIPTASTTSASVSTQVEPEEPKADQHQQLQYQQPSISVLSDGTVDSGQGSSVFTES
UniProt Q96J92: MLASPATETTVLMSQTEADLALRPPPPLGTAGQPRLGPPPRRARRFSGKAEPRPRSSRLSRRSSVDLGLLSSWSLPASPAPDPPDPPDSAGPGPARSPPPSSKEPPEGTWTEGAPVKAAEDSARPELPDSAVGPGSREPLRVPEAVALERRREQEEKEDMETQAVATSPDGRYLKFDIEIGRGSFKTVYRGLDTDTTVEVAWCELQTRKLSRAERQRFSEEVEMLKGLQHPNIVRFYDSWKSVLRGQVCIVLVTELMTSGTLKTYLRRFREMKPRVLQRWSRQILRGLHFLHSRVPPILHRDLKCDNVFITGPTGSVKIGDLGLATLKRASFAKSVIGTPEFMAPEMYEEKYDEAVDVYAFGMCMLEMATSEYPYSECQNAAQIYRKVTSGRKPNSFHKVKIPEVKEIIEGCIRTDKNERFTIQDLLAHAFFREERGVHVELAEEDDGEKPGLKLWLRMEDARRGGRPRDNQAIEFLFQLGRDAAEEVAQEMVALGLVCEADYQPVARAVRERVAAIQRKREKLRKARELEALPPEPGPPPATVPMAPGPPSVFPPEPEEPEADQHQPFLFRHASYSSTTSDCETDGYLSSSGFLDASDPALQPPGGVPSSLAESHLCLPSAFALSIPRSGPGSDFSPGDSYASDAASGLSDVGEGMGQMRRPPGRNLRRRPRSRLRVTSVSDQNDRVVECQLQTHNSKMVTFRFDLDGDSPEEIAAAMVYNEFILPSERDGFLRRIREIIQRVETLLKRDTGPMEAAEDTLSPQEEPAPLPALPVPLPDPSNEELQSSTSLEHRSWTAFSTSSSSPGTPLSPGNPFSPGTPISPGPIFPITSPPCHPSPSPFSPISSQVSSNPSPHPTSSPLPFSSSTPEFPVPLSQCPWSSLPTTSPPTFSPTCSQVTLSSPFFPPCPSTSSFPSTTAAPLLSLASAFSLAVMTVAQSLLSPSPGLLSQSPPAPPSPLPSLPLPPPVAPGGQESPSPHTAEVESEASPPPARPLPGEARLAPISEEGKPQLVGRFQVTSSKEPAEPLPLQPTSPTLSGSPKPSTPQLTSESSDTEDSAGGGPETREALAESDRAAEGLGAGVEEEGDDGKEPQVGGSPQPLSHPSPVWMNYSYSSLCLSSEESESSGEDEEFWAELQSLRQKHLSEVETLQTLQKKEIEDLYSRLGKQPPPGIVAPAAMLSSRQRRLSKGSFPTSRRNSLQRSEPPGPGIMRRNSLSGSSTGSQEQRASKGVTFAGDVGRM

Results are given in words; binding and its absence hold for the method and conditions named. In cells and extracts the contact can be indirect. Some binding calls cover weakened binding; strength is not graded here. Where a sequence is shown, tags or fusion partners need not be part of it.

Assay [1] has as its target T1, FLAG-tagged KLHL3[S432N] (human) (UniProt Q9UH77).
T1 sequence: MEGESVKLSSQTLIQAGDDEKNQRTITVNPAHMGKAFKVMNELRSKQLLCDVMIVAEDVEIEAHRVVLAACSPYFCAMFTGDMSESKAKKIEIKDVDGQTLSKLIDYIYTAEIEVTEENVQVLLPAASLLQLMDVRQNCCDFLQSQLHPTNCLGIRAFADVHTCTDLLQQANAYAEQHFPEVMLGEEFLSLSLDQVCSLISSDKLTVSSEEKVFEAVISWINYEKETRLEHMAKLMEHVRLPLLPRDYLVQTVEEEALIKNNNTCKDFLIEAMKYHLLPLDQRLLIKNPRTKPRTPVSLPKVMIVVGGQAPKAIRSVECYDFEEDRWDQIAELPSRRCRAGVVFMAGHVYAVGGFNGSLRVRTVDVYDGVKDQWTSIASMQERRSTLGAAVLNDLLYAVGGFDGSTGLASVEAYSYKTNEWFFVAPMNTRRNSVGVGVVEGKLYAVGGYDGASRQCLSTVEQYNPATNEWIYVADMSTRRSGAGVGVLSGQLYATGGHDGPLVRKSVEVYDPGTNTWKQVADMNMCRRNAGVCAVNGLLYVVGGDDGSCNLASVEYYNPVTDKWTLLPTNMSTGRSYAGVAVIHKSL
The assay can be described thus: co-IP; anti-FLAG agarose IP of FLAG-KLHL3 (wild type or mutant) from 0.2-5 mg HEK-293 lysate; washes with 0.5 M NaCl; immunoblot for endogenous WNK1 and CUL3.

Assay [2] deals with T2, FLAG-tagged wild-type KLHL3 (Kelch-like 3) (human) (UniProt Q9UH77).
T2 sequence: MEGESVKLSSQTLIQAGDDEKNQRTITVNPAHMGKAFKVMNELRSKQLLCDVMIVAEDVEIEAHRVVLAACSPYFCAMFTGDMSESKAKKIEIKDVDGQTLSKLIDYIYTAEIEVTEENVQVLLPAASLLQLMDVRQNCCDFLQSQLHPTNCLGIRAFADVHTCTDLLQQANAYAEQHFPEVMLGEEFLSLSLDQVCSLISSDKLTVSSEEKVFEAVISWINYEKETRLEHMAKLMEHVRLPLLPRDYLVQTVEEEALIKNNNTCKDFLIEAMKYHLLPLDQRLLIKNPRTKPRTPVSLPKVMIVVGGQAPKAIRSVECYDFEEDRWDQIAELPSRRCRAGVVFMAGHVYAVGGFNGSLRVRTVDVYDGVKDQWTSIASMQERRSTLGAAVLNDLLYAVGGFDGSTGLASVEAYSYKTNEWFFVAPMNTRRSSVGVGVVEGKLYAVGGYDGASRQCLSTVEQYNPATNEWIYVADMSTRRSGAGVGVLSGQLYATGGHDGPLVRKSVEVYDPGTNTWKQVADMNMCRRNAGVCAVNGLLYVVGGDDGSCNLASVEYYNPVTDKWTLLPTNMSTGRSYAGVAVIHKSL
The assay is described as above.

The target in assay [3] is T3, FLAG-tagged KLHL3[A340V] (human) (UniProt Q9UH77).
T3 sequence: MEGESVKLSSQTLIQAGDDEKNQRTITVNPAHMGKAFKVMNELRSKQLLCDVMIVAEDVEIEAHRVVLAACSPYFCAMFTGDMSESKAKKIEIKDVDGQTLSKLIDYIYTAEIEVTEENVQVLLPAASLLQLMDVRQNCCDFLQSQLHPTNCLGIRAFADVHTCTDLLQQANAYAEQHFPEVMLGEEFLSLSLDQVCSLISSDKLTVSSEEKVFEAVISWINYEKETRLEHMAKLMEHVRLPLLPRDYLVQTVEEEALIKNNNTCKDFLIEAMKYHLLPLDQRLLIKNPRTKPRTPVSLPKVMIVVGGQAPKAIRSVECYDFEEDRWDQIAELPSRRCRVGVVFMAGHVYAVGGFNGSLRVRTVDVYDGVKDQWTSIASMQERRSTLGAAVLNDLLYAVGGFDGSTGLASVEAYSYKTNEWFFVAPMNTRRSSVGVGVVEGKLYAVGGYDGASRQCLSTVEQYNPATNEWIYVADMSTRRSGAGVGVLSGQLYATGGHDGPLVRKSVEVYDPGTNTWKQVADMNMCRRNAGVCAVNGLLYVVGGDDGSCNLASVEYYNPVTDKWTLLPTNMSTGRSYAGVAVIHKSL
The assay is described as above.

Assay [4] addresses T4, FLAG-tagged KLHL3[R528H] (human) (UniProt Q9UH77).
T4 sequence: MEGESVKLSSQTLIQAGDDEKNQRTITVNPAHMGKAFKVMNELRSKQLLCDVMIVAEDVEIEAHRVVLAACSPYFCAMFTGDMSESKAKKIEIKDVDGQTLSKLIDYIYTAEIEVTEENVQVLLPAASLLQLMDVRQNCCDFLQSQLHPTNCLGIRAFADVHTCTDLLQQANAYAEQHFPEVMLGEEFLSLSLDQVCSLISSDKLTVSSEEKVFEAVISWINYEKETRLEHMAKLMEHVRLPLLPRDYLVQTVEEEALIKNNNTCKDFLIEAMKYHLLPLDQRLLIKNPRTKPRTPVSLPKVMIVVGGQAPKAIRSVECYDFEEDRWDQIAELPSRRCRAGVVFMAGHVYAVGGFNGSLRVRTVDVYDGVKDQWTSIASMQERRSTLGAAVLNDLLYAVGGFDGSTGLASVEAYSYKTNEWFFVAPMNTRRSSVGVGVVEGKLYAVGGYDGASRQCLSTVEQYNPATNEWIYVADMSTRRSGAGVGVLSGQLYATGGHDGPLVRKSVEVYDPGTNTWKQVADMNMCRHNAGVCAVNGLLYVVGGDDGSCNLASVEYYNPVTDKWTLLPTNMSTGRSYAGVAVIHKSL
Described as above.

The target in assay [5] is T5, FLAG-tagged KLHL3[A494T] (human) (UniProt Q9UH77).
T5 sequence: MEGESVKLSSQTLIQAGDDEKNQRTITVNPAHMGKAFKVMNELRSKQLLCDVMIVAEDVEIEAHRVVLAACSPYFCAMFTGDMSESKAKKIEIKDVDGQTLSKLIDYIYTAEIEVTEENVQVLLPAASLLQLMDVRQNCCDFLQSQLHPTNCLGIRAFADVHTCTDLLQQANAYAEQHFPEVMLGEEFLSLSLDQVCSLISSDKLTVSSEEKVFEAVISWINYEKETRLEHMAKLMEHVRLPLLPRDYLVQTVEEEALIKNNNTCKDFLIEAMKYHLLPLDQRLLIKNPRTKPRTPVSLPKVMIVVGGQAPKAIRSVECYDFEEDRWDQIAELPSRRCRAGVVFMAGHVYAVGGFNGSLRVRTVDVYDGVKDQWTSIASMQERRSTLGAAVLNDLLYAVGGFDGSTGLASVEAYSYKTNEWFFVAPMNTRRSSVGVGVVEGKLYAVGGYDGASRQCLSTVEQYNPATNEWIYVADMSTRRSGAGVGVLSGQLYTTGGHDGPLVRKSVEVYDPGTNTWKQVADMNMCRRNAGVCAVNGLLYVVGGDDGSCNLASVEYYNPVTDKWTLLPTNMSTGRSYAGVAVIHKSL
Described as above.

The target of assay [6] is T6, GFP-tagged wild-type KLHL3 (human) (UniProt Q9UH77).
T6 sequence: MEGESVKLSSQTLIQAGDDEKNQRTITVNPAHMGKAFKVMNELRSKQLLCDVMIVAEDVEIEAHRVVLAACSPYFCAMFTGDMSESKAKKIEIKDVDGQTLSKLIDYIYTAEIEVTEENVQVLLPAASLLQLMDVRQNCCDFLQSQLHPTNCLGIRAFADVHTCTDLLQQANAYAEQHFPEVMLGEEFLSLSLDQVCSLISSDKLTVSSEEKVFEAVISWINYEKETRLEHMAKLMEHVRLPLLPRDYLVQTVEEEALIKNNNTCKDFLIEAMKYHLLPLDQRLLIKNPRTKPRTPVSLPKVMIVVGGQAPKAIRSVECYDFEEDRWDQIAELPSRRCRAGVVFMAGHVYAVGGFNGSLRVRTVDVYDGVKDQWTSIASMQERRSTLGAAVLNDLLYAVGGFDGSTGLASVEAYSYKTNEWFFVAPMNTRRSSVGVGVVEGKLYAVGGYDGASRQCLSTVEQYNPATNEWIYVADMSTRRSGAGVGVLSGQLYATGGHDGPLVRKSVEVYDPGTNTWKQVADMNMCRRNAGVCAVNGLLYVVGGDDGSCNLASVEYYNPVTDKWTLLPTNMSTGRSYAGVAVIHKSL
The assay can be described thus: co-IP; GFP-KLHL3 transfected into HEK-293 cells stably expressing FLAG-NCC; anti-GFP agarose IP from 0.2 mg extract; immunoblot. On the technique in general: In western blotting, separated proteins are transferred to a membrane and probed.

The target in assay [7] is GST-tagged WNK1[479–667] D635A (UniProt Q9H4A3). The assay can be described thus: pull-down + co-IP; GST-WNK1 fragments transfected into HEK-293 cells stably expressing GFP-KLHL3; glutathione-Sepharose purification blotted with anti-GFP, and anti-GFP IP blotted with anti-GST.
Assay [8] addresses GST-tagged WNK1[479–667] Q636E (UniProt Q9H4A3). Described as above.
Assay [9] has as its target GST-tagged WNK1[479–667] fragment (UniProt Q9H4A3). The assay is described as above.
Assay [10] deals with GST-tagged WNK1[479–667] E633K (UniProt Q9H4A3). The description is as above.
Assay [11] concerns the target FLAG-tagged wild-type WNK4 (UniProt Q96J92). The assay can be described thus: co-IP; GFP-KLHL3 transfected into HEK-293 cells stably expressing FLAG-WNK4 (wild type or mutant); anti-FLAG IP and anti-GFP IP, immunoblot.

Take “WNK1 (with no lysine kinase 1), endogenous (from UniProt Q9H4A3 1-2382)”: the binding entry is reported as “no binding” in assay [1]; “binds” in assay [2]; “binds” in [3]; “binds” in [4]; “binds” in assay [5]; “binds” in assay [6].

B1: GFP-tagged wild-type KLHL3 (protein, UniProt Q9UH77-1 1-587)
chain: MEGESVKLSSQTLIQAGDDEKNQRTITVNPAHMGKAFKVMNELRSKQLLCDVMIVAEDVEIEAHRVVLAACSPYFCAMFTGDMSESKAKKIEIKDVDGQTLSKLIDYIYTAEIEVTEENVQVLLPAASLLQLMDVRQNCCDFLQSQLHPTNCLGIRAFADVHTCTDLLQQANAYAEQHFPEVMLGEEFLSLSLDQVCSLISSDKLTVSSEEKVFEAVISWINYEKETRLEHMAKLMEHVRLPLLPRDYLVQTVEEEALIKNNNTCKDFLIEAMKYHLLPLDQRLLIKNPRTKPRTPVSLPKVMIVVGGQAPKAIRSVECYDFEEDRWDQIAELPSRRCRAGVVFMAGHVYAVGGFNGSLRVRTVDVYDGVKDQWTSIASMQERRSTLGAAVLNDLLYAVGGFDGSTGLASVEAYSYKTNEWFFVAPMNTRRSSVGVGVVEGKLYAVGGYDGASRQCLSTVEQYNPATNEWIYVADMSTRRSGAGVGVLSGQLYATGGHDGPLVRKSVEVYDPGTNTWKQVADMNMCRRNAGVCAVNGLLYVVGGDDGSCNLASVEYYNPVTDKWTLLPTNMSTGRSYAGVAVIHKSL
Take B1: the binding entry in assay [7] is “no binding”; in assay [8], “no binding”; in [9], “binds”; in assay [10] it was “no binding”; in assay [11], “binds”.

B2: FLAG–NCC (Na+/Cl- co-transporter) (protein, UniProt P55017 1-1021)
chain: MAELPTTETPGDATLCSGRFTISTLLSSDEPSPPAAYDSSHPSHLTHSSTFCMRTFGYNTIDVVPTYEHYANSTQPGEPRKVRPTLADLHSFLKQEGRHLHALAFDSRPSHEMTDGLVEGEAGTSSEKNPEEPVRFGWVKGVMIRCMLNIWGVILYLRLPWITAQAGIVLTWIIILLSVTVTSITGLSISAISTNGKVKSGGTYFLISRSLGPELGGSIGLIFAFANAVGVAMHTVGFAETVRDLLQEYGAPIVDPINDIRIIAVVSVTVLLAISLAGMEWESKAQVLFFLVIMVSFANYLVGTLIPPSEDKASKGFFSYRADIFVQNLVPDWRGPDGTFFGMFSIFFPSATGILAGANISGDLKDPAIAIPKGTLMAIFWTTISYLAISATIGSCVVRDASGVLNDTVTPGWGACEGLACSYGWNFTECTQQHSCHYGLINYYQTMSMVSGFAPLITAGIFGATLSSALACLVSAAKVFQCLCEDQLYPLIGFFGKGYGKNKEPVRGYLLAYAIAVAFIIIAELNTIAPIISNFFLCSYALINFSCFHASITNSPGWRPSFQYYNKWAALFGAIISVVIMFLLTWWAALIAIGVVLFLLLYVIYKKPEVNWGSSVQAGSYNLALSYSVGLNEVEDHIKNYRPQCLVLTGPPNFRPALVDFVGTFTRNLSLMICGHVLIGPHKQRMPELQLIANGHTKWLNKRKIKAFYSDVIAEDLRRGVQILMQAAGLGRMKPNILVVGFKKNWQSAHPATVEDYIGILHDAFDFNYGVCVMRMREGLNVSKMMQAHINPVFDPAEDGKEASARVDPKALVKEEQATTIFQSEQGKKTIDIYWLFDDGGLTLLIPYLLGRKRRWSKCKIRVFVGGQINRMDQERKAIISLLSKFRLGFHEVHILPDINQNPRAEHTKRFEDMIAPFRLNDGFKDEATVNEMRRDCPWKISDEEITKNRVKSLRQVRLNEIVLDYSRDAALIVITLPIGRKGKCPSSLYMAWLETLSQDLRPPVILIRGNQENVLTFYCQ
For the molecule B2, the binding entry in assay [6] is reported as “no binding”.
